From PubChem BioAssay AID624417 (National Center for Advancing Translational Sciences (NCATS), 2012)
About 6,400 (1.6%) of roughly 410,000 compounds were called active. Inconclusive results, whose numbers are uncertain, are shown with a selection of clear calls. Calls come from the whole dose curve; as a rule, active = well fitted inhibition curve with a large enough effect; inconclusive = small, poorly fitted or top-dose-only effect; inactive = no such curve, though single readings can be large or run the other way. Potencies of inconclusive entries are left out as doubtful fits.
Note: nearly all actives have a fitted effect of over 55% in size.
Potency is the fitted concentration of half-maximal effect; tags give direction and shape of the fitted curve.

Each compound was assayed against Glucagon-like peptide 1 receptor (Homo sapiens) (UniProt P43220) (assay: qHTS of GLP-1 Receptor Inverse Agonists (Inhibition Mode)). Conditions: HEK293 GLP-1R CRE-luciferase, luminescence, 24 h, GLP-1R form is constitutively active; series mostly up to 38.3 µM.
Sequence of UniProt P43220 (P43220 whole entry, looked up): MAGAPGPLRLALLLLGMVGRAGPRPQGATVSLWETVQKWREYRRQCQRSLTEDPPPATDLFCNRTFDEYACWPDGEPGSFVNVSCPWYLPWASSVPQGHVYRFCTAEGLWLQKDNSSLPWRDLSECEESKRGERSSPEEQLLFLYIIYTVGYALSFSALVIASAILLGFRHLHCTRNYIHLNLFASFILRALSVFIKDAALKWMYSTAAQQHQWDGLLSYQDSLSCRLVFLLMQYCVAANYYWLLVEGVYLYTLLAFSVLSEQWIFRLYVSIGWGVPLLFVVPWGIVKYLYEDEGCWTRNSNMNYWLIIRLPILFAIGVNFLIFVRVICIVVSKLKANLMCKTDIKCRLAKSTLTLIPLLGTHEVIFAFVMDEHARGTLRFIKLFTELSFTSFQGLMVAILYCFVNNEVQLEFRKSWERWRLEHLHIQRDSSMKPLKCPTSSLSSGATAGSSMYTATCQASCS
How it was run: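 GLP-1R inverse agonism mode: basal reporter luminescence in engineered HEK293 cells measured after one day of compound exposure at 37 deg C, with a 12 min room-temperature detection step.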
`O=S(=O)(NCCc1cccs1)c1ccc(Br)cc1` was tested, and the Potency was inconclusive [inhibitor, single point]. With `C=CCSc1nc2sc3c(c2c(=O)n1-c1ccccc1)CCN(C)C3` the Potency was inconclusive [inhibitor, single point]. For `Cc1cccc(OCC(=O)Nc2ccc(C(=O)Nc3ccccc3C(=O)O)cc2)c1`, the Potency was “inactive”. With `c1ccc(Nc2nc(-c3ccccc3)nc3ccccc23)cc1` the Potency was inconclusive [inhibitor, partial curve]. For `Cc1onc(-c2c(F)cccc2Cl)c1C(=O)Nc1ccc(Cl)c(S(=O)(=O)N(C)C)c1`, the Potency was inconclusive [inhibitor, single point]. `Cc1nc(N2CCCCC2C)c2c(C)c(C(=O)Nc3ccccc3C(F)(F)F)sc2n1` (stereo not given) was tested, and the Potency was inconclusive [inhibitor, single point]. `CC(C)c1ccc(NC(=O)Nc2nc(C(N)c3ccccc3Cl)cs2)cc1` (stereo not given) was tested, and the Potency was inconclusive [inhibitor, partial curve, poor fit]. For `CCc1cccc(CC)c1NC(=O)/C(C#N)=C/c1ccccc1C(F)(F)F`, the Potency was inconclusive [inhibitor, partial curve, poor fit]. With `CCN(Cc1ccccc1)C(=S)NC(=O)c1ccccc1Br` the Potency was inconclusive [inhibitor, partial curve, poor fit]. With `O=[N+]([O-])c1cccnc1Sc1ccc(Cl)cc1` the Potency was inconclusive [inhibitor, partial curve, poor fit]. For `c1cncc(CSc2ccc(-c3cccs3)nn2)c1`, the Potency was “inactive”. With `CCCC(=O)N1CCN(c2nnc(-c3ccc(C)cc3)c3ccccc23)CC1` the Potency was inconclusive [inhibitor, partial curve, poor fit]. For `CCc1ccc(N(C(=O)c2snc(C(N)=O)c2N)C(C(=O)NC2CCCC2)c2ccco2)cc1` (stereo not given), the Potency was inconclusive [inhibitor, single point]. For `CCN(c1ccccc1)S(=O)(=O)c1cc(C(=O)Nc2ccccc2Cl)ccc1F`, the Potency was inconclusive [inhibitor, partial curve, poor fit]. With `C=CC[C@@H](Cc1ccc(F)cc1)C(=O)OC[C@H]1CCCN1C(=O)[C@@H](CC=C)CC(=O)N[C@@H](CO)Cc1ccccc1` the Potency was inconclusive [inhibitor, single point]. With `COC(=O)c1ccc(CNC(=O)C23CC4CC(CC(C4)C2)C3)cc1` the Potency was inconclusive [inhibitor, single point]. For `O=S(=O)(c1ccccc1)N1N=C(c2ccccc2)CC1c1ccccc1F` (stereo not given), the Potency was inconclusive [inhibitor, single point]. In the case of `COC(=O)CCCCCN1C(=O)NC(c2ccccc2)C(C(=O)OCc2ccccc2)=C1C` (stereo not given), the Potency is reported as inconclusive [inhibitor, single point]. In the case of `Cc1ccc(S(=O)(=O)N2CCOCC2)cc1C(=O)OCC(=O)NCCc1ccccc1`, the Potency is reported as inconclusive [inhibitor, single point]. For `O=C1CCSC2(C(=O)N(Cc3ccccc3)c3ccccc32)N1c1ccccc1` (stereo not given), the Potency was active: 11.2 µM. In the case of `CS(=O)(=O)c1ccc2nc(NC(=O)c3cccc(NS(=O)(=O)c4ccc(F)c(F)c4)c3)sc2c1`, the Potency is reported as inconclusive [inhibitor, partial curve, poor fit]. In the case of `CCOC(=O)c1c(C)n(-c2ccc(C)cc2)c2ccc(O)c(CN(C)C)c12`, the Potency is reported as inconclusive [inhibitor, partial curve, poor fit]. In the case of `Cc1cc(OCC#N)nc(N)n1`, the Potency is reported as inconclusive [inhibitor, single point]. `NC(=S)NNC(=O)Nc1ccc(Cl)c(Cl)c1` was tested, and the Potency was inconclusive [inhibitor, single point]. For `CC(C)CCNC(=O)Cn1cc(S(=O)(=O)Cc2ccc(F)cc2)c2ccccc21`, the Potency was inconclusive [inhibitor, single point]. In the case of `CC(=O)NC(c1ccc(C)cc1)c1cc(Cl)c2cccnc2c1O` (stereo not given), the Potency is reported as inconclusive [inhibitor, single point]. In the case of `COc1ccc2c(c1)[C@H]1[C@H](CO2)[C@H](c2ccccc2)[C@]2(C)C(=O)Nc3ccc(Cl)cc3C(=O)N12`, the Potency is reported as inconclusive [inhibitor, partial curve, poor fit]. In the case of `CC(OC(=O)Cc1c(F)cccc1Cl)C(=O)NC1CCCCC1C` (stereo not given), the Potency is reported as inconclusive [inhibitor, single point]. With `CSc1cccc(NC(=O)COC(=O)C2(c3ccccc3)CC2)c1` the Potency was inconclusive [inhibitor, partial curve]. With `Cn1c(=O)c2c(nc(Br)n2CC(=O)c2cccs2)n(C)c1=O` the Potency was “inactive”. For `CCc1ccc[n+](-c2[nH]c(=O)sc2/C=N/N=C(\N)[O-])c1`, the Potency was inconclusive [inhibitor, full curve, poor fit]. In the case of `CC(C)c1ccc(NC2CCCN(C(=O)c3ccncc3)C2)cc1` (stereo not given), the Potency is reported as inconclusive [inhibitor, partial curve, poor fit]. `COc1cc(/C=C/C(=O)OCc2csc(CC(=O)Nc3ccc(C)cc3)n2)ccc1OCC#N` was tested, and the Potency was inconclusive [inhibitor, single point]. In the case of `CCOC(=O)C1=C(C)N=C2c3ccccc3C(=O)C2C1c1ccccc1` (stereo not given), the Potency is reported as inconclusive [inhibitor, single point]. For `Cc1ccc(NC(=O)c2cccc(S(=O)(=O)N3CCN(c4ccc(F)cc4)CC3)c2)nc1`, the Potency was inconclusive [inhibitor, single point]. For `O=C(/C=C/c1cccc(F)c1)OCC(=O)N1CCCc2ccccc21`, the Potency was inconclusive [inhibitor, partial curve]. With `Cc1ccc(S(=O)(=O)NCCSCc2ccccc2)cc1` the Potency was inconclusive [inhibitor, single point]. `Cn1c(=O)[nH]c(=O)c2c1nc(N1CCCCCC1)n2CCSc1nc2ccccc2[nH]1` was tested, and the Potency was inconclusive [inhibitor, partial curve, poor fit]. With `COc1ccc(-c2c(-c3ccccc3OC)oc3ccccc23)cn1` the Potency was inconclusive [inhibitor, single point]. `CCc1nc2ccc(C(=O)Nc3ccc(OC)c(OC)c3)cn2c1N(CCC(C)C)CCN(C)C` was tested, and the Potency was inconclusive [inhibitor, single point]. `CN(Cc1ccco1)C(=O)CN1C(=O)NC(c2ccccc2)(c2ccccc2)C1=O` was tested, and the Potency was inconclusive [inhibitor, partial curve]. `CCCC[C@H]1COCCS(=O)(=O)N1Cc1cccc(Cl)c1` was tested, and the Potency was inconclusive [inhibitor, single point]. `CCc1noc(C)c1C(=O)Nc1ccc(S(=O)(=O)N2CCCCC2)cc1` was tested, and the Potency was inconclusive [inhibitor, single point]. `O=C(NC1CCCN(Cc2ccc(Cl)cc2)C1)c1cccc(F)c1` (stereo not given) was tested, and the Potency was inconclusive [inhibitor, single point]. `Cc1ccc(C)c(NS(=O)(=O)c2cc(C(=O)NCCC3=CCCCC3)ccc2C)c1` was tested, and the Potency was inconclusive [inhibitor, single point]. With `COc1ccc(-c2nc3cc(C)c(Br)c(C)n3c2CC(C)(C)C)cc1OC` the Potency was inconclusive [inhibitor, single point]. `COc1ccc(C(=O)Nc2nc(-c3nnn(-c4cc(OC)ccc4OC)c3C)ns2)cc1` was tested, and the Potency was inconclusive [inhibitor, partial curve, poor fit]. With `O=C(NC1CCCc2ccccc21)c1ccccc1OC(F)F` (stereo not given) the Potency was “inactive”. In the case of `O=C(CSc1nc2ccccc2s1)c1ccc(O)cc1O`, the Potency is reported as inconclusive [inhibitor, single point]. For `CCCCCCc1cc2cc(-c3nnc(-c4ccccc4OC)o3)c(=O)oc2cc1O`, the Potency was inconclusive [inhibitor, partial curve, poor fit]. In the case of `COC(=O)Cc1ccc(NC(=S)Nc2cccc(C)n2)cc1`, the Potency is reported as inconclusive [inhibitor, single point]. `Clc1ccc(CN2CCN(c3ncnc4scc(-c5cccs5)c34)CC2)cc1` was tested, and the Potency was inconclusive [inhibitor, single point]. `CN(C(=O)CSc1nc2ccc(NC(=O)c3cccs3)cc2s1)c1ccccc1` was tested, and the Potency was inconclusive [inhibitor, single point]. With `Cc1cc(NC(=O)CSc2nnnn2-c2ccccc2C)no1` the Potency was inconclusive [inhibitor, single point]. `CN(C(=S)Nc1ccc(Oc2ccccc2)cc1)c1ccc(O)cc1` was tested, and the Potency was inconclusive [inhibitor, single point]. `COc1ccccc1CNC(=O)N1CCN(c2ccccc2C)CC1` was tested, and the Potency was inconclusive [inhibitor, single point]. In the case of `NC(=O)c1ccccc1N(Cc1ccccc1)S(=O)(=O)c1ccccc1`, the Potency is reported as inconclusive [inhibitor, single point]. For `O=C1CN(C(=O)c2c(F)cccc2Cl)C(c2ccc(F)cc2)c2cc(Br)ccc2N1` (stereo not given), the Potency was inconclusive [inhibitor, single point]. `Cc1ccccc1CN1CCN(Cc2cc3ccccc3o2)CC1CCO` (stereo not given) was tested, and the Potency was inconclusive [inhibitor, single point]. `Cc1ccc(C(=O)N2CCCc3ccccc32)c(Cl)c1` was tested, and the Potency was inconclusive [inhibitor, single point].
